In all, about 150,000 compounds went through this assay and about 540 (0.36%) showed an effect of 50% or more. The list shows a part of the results.
system: Plasmodium falciparum; experiment: Primary screen in NF54 nanoGlo assay, in single point, at 2uM, 72h; a lower Z score goes with more inhibition; type: functional, Erythrocyte; details: timepoint 72 hour

SMILES | % Inhibition | Z score
CCCCc1noc(CN(C)CCN2CCCC2)n1 | -8% | 1.07
O=C(C1CCC1)N(CCc1ccc(F)cc1)Cc1cc2ccc(Cl)cc2nc1N1CCC(O)CC1 | 18% | -2.39
CC(C)(C)OC(=O)N1C[C@@H](F)C[C@@H]1C(N)=O | -2% | 0.28
CC(C)Nc1nnccc1C(=O)N1CCC[C@H](C(F)(F)F)C1 | -6% | 0.67
Cc1cccc(C(=O)N2CC3(C[C@H](N4CCCCC4)CO3)C2)c1 | -7% | 1.1
Cc1cc(N2CCN(C3CCC3)CC2)n[nH]1 | -3% | 0.34
Cc1cc(N2C[C@@H](CN(C)CCO)[C@@H](CO)C2)nc(-c2ccccc2)n1 | -9% | 1.82
Cn1c(-c2cccc(C(=O)NCc3ccc(F)cc3)c2)nc2cccnc21 | -9% | 1.16
C[C@H](NC(=O)c1cc(C(F)(F)F)n[nH]1)c1n[nH]c(N)n1 | -2% | 0.47
C[C@@H]1CN(C(=O)NCc2ccc(=O)[nH]n2)C[C@H](C)N1CC(F)(F)F | -6% | 1
Cc1cc(NC(=O)NCC2CCCC2O)nn1CCC#N (stereo not given) | 1% | -0.12
Cc1nc2n(n1)CCC[C@@H]2NC(=O)Nc1ccccc1Oc1cc(F)cc(F)c1 | -11% | 1.68
CO[C@H]1CC[C@@]2(OC)CCN(C(=O)c3ccc(-c4cc[nH]n4)cc3)[C@H]2C1 | -12% | 2.35
CCOC1CC(CO)(NCc2cncnc2)C1(C)C (stereo not given) | -6% | 0.59
CC1CCC2(CC1)NC(=O)N(Cc1cc(Cl)c3c(c1)OCCCO3)C2=O (stereo not given) | -13% | 2.03
CC(Cc1ccccc1Cl)C(=O)NC1CCN(C(=O)Nc2ccccc2)C1 (stereo not given) | -1% | 0.11
O=C(c1cccc(-c2nc(-c3ccc(F)cc3)no2)c1)N1CCC(N2CCCCC2)CC1 | -7% | 0.76
Cn1nccc1CNc1ccc(OC(F)(F)F)cn1 | 5% | -0.75
COc1ccc(C)cc1[C@H](C)NC(=O)N[C@@H]1Cc2ccccc2[C@H]1O | -19% | 2.08
O=S(=O)(Cc1ccco1)C1CN(S(=O)(=O)Cc2ccccc2Cl)C1 | -18% | 2.24
CC[C@H]1CN(S(=O)(=O)c2ccc3c(c2)CCC(=O)N3)CCO1 | -9% | 0.8
Cc1ccc(CCN(C[C@H]2CCCO2)C(=O)c2cn(C)nc2C)cc1 | -4% | 0.57
CC[C@H](NC(=O)Cn1ccnc1)c1nccs1 | -6% | 0.88
Cc1ccc(NC(=O)N2CCc3nc(N4CCC(C)CC4)nc(Oc4cccc(F)c4)c3C2)cc1 | -12% | 1.89
CCOCCCNC(=O)c1cn(C)c2c(c(C)nn2-c2ccc(F)cc2)c1=O | -11% | 1.75
Cc1cc(C(=O)Nc2nc(-c3ccc4c(c3)OCCO4)cs2)n(C)n1 | 22% | -3.09
Cc1cccc(N2C(=O)C3C(c4ccccc4O)NC(Cc4c[nH]c5ccccc45)(C(=O)O)C3C2=O)c1 (stereo not given) | -2% | 0.26
CC(=O)c1c(F)cccc1NCCNC(=O)c1ccc(O)cc1 | 33% | -3.71

SMILES | % Inhibition | Z score
OC[C@H]1CN(c2nc3ccccc3o2)C[C@H]1CN1CCCCC1 | -5% | 0.72
Cc1noc(CNC(=NCc2ccccc2)NC2CCCC2)n1 | -7% | 0.92
CC(=O)Nc1cccc(CN2C[C@H]3CCS(=O)(=O)[C@H]3C2)c1 | -4% | 0.77
O=C(CC1CC2CCC1C2)Nc1cn[nH]c1 (stereo not given) | -16% | 1.43
CCNC(=O)NC(=O)[C@H](C)Nc1cnn(C(C)(C)C)c1 | 6% | -0.75
Cc1nc(CC2CC2)sc1C(=O)N(C)c1c(C)noc1C | -6% | 0.7
CN(C(=O)Cc1cc(Br)ccc1F)c1cccnc1 | 10% | -0.88
CCc1nnc(CNC(=O)[C@]2(O)CCc3cc(Br)ccc3C2)o1 | 4% | -0.58
C=CCC[C@@H](CN(C)Cc1cccnc1)Oc1ccc(C)nn1 | -2% | 0.31
CCOc1ccc(C(=O)Nc2ccc(C)c(-c3nnnn3C3CC3)c2)cn1 | 12% | -1.32
CC(C)(C)C(=O)NCCc1cscn1 | 9% | -1.18
CCOc1ccc(C2=NNC(c3ccc(C)cc3)=Nc3ccccc32)cc1OCC | -11% | 1.26
O=C(CN1CCn2nc(C(F)(F)F)cc2C1)NCc1cccs1 | -3% | 0.43
COc1ncccc1NC(=O)c1ccoc1C | 3% | -0.43
Cn1nccc1/C=C1\CC2C3CCc4cc(O)ccc4C3CCC2(C)C1O (stereo not given) | 54% | -6.08
FC(F)COc1cc(CNC2C3CCOC3C23CCC3)ccn1 (stereo not given) | 3% | -0.29
CC(=O)c1cnc(NCc2ccc3c(c2)OCO3)nc1C | -1% | 0.13
Cc1ccc2c(n1)OCCN2S(=O)(=O)c1ccnn1C | -2% | 0.25
COC(=O)[C@@H]1C[C@@H](N(C)C)CN1C(=O)CC(=O)Nc1ccc(C)cc1 | -9% | 1.74
Cc1cc(NC(=O)c2cc(O)nc3ccccc23)n(C)n1 | 0% | 0.04
Cn1ccc2c(-c3cccc(O)n3)ccnc21 | -19% | 1.7
CC1CCN(C(=O)c2ccc(-c3ccccc3)[nH]2)C(CN)C1 (stereo not given) | 7% | -0.8
CCS(=O)(=O)C1CCN(Cc2cccc(OC)c2Cl)CC1 | 3% | -0.26
COc1cn(C)nc1[C@H](C)Nc1ncc(C#N)cc1Cl | -14% | 1.6
CC(C)Cc1nc([C@@H]2CCCCCN2)no1 | -11% | 1.39
Cc1cc2[nH]c(=O)c(C(=O)N(C)Cc3ccccc3)cn2n1 | -46% | 5.45
Cc1cc(C)c2c(CC(=O)N[C@H]3CCOC3)coc2c1C | -3% | 0.53

From ChEMBL document CHEMBL4888484, “Replenishing the malaria drug discovery pipeline: Screening and hit evaluation of the MMV Hit Generation Library 1 (HGL1) against asexual blood stage Plasmodium falciparum ,using a nano luciferase reporter read-out” (2022)
